Laboratory results taken from PubChem BioAssay AID2675 (National Center for Advancing Translational Sciences (NCATS), 2010).
Among all 280,000 compounds or so, about 100 (0.036%) were called active. The inconclusive results got no clear call from the source; some entries with a clear call stand among them for comparison. Calls follow the shape of the dose curve; as a rule, active = well fitted inhibition curve with a large enough effect in the signal ratio, with a control signal flat (not every such curve was filed as active); inconclusive = small, poorly fitted or top-dose-only effect, or effect the other way, or a change in a side signal; inactive = no such curve, though single readings can be large or run the other way; the % refers to the signal ratio. Potencies beside an inconclusive call are fits to weak or partial responses and may not hold up. “Side channel” marks fits to a control or component signal instead of the main read-out.

biological target: Muscleblind-like protein 1 (Homo sapiens) (UniProt Q9NR56); assay: qHTS Assay for Inhibitors of MBNL1-poly(CUG) RNA binding; conditions: TR-FRET MBNL1-His/biotin-(CUG)12 binding, 665/545 ratio; series mostly up to 57.5 µM
Summary of the method: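 Compound titration spanned 92 nM–58 uM against the MBNL1-His/biotin-(CUG)12 complex. After 60 min at room temperature with 5 nM streptavidin-XL665 and 0.055 ng/ul terbium anti-His, ratiometric 665/545 nm emission (Ex 340 nm) normalized to controls.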
Potency is read from the fitted curve at half-maximal effect; tags tell the direction and shape of the fitted curve or compound fluorescence and quenching.

UniProt Q9NR56, sequence (Q9NR56 whole entry, looked up): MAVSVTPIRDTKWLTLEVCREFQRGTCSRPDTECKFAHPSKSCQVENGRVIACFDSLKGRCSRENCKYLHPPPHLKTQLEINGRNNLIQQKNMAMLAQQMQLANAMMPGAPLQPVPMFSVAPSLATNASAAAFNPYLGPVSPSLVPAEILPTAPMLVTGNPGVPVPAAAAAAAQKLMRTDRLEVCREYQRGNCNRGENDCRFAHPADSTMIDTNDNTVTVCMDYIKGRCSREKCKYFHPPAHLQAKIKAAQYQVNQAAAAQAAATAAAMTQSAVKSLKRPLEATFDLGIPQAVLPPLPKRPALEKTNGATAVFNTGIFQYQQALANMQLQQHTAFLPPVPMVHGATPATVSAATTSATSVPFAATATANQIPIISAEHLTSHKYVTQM

| Compound | Potency |
| --- | --- |
| Cc1c(NC(=O)CN2C(=O)c3cccc4cccc2c34)c(=O)n(-c2ccccc2)n1C | inconclusive: 15.8 µM [quencher, partial curve] |
| CCOC(=O)CC1(C)SC(NC(C)=O)=NN1C(C)=O (configuration not stated) | inconclusive: 12.6 µM [quencher, side channel, partial curve] |
| CCOc1ccccc1NC(=O)c1ccc2nccnc2c1 | inconclusive: 12.6 µM [quencher, partial curve] |
| Cc1ccc(NC(=O)CCC(=O)OCC(=O)c2ccc(Oc3ccc([N+](=O)[O-])cc3)cc2)c(C)c1 | inconclusive: 8.91 µM [quencher, side channel, partial curve] |
| O=c1n(-c2ccc(Br)cc2)cnn1-c1ncccc1[N+](=O)[O-] | inconclusive: 25.1 µM [quencher, side channel, partial curve] |
| NS(=O)(=O)c1ccc(NC(=O)c2cc(-c3ccccc3O)n[nH]2)cc1 | inactive |
| O=C(Cn1cncn1)N/N=C/c1c2ccccc2cc2ccccc12 | inconclusive: 20 µM [quencher, side channel, single point] |
| CCc1cc2c(=O)nc3n(c2s1)Cc1ccccc1/C3=C(/O)c1ccc(F)cc1 | inconclusive: 12.6 µM [quencher, side channel, partial curve] |
| Cc1cc(=O)[nH]c(SCC(=O)Nc2ccc(F)c([N+](=O)[O-])c2)n1 | inconclusive: 11.2 µM [quencher, side channel, partial curve] |
| c1ccc(N2CCN(C3CCSC3)CC2)cc1 (configuration not stated) | inconclusive: 4.47 µM [fluorescent, side channel, partial curve] |
| COc1ccccc1CN1CCN(C(CC(C)C)c2nnnn2Cc2cccs2)CC1 (configuration not stated) | inactive |
| COc1ccc(NC(=O)c2ccc3c(c2)C(=O)N(Cc2cccnc2)C3=O)cc1 | inconclusive: 2.51 µM [quencher, side channel, full curve, poor fit] |
| Nc1nonc1-n1nnc(C(=O)N/N=C/c2ccc(OCc3ccccc3F)cc2)c1CN1CCCCC1 | inactive |
| O=c1[nH]c2cc3c(cc2cc1CN(CCc1ccccc1)Cc1nnnn1CC1CCCO1)OCO3 (configuration not stated) | inconclusive: 20 µM [quencher, side channel, partial curve] |
| COc1cc(/C=C2/C(=O)NN(c3ccc(C)c(Cl)c3)C2=O)cc([N+](=O)[O-])c1O | inconclusive: 31.6 µM [quencher, side channel, single point] |
| O=C(Cc1ccccc1[N+](=O)[O-])N1CCN(S(=O)(=O)c2ccccc2)CC1 | inconclusive: 20 µM [quencher, side channel, partial curve] |
| COc1ccc2c([N+](=O)[O-])c(Cl)[nH]c2c1 | inconclusive: 39.8 µM [quencher, side channel, single point] |
| O=C(N/N=C/c1cc2cc3c(cc2nc1Cl)OCO3)c1ccncc1 | inconclusive: 0.891 µM [quencher, side channel, full curve, poor fit] |
| COc1ccc(NC(=O)CN2C(=O)c3cccc4cccc2c34)cc1OC | inconclusive: 3.16 µM [quencher, side channel, single point] |

| Compound | Potency |
| --- | --- |
| O=c1c2ccc([N+](=O)[O-])cc2ncn1CCOc1ccc(Cl)cc1 | inconclusive: 14.1 µM [quencher, side channel, partial curve] |
| Cc1ccc(OCC(=O)N2CCc3ccccc32)c([N+](=O)[O-])n1 | inconclusive: 17.8 µM [quencher, side channel, partial curve] |
| Nc1cccc2c1C(=O)N(C(=O)c1ccc(S(=O)(=O)N3CCCCCC3)cc1)C2=O | inconclusive: 14.1 µM [quencher, partial curve] |
| CCn1c(C)[n+](CC)c2ccc(S(=O)(=O)NC)cc21 | inactive |
| CCCCOC(=O)Nc1ccccc1C(=O)N1CCCC1 | inconclusive: 15.8 µM [inhibitor, single point] |
| Cc1ccc(-c2nc3c(c(=O)c4ccccc4n3C)c(=O)n2-c2ccc(F)cc2)cc1 | inconclusive: 35.5 µM [fluorescent, partial curve] |
| COc1ccc(/C=N/NC(=O)c2ccc(=O)n(C)c2)cc1OC | inconclusive: 22.4 µM [quencher, side channel, partial curve] |
| O=C(c1c[nH]c(C(=O)C(Cl)(Cl)Cl)c1)c1ccccc1F | inactive |
| Cc1cccn2c(=O)c(/C=C(\C#N)C(=O)NC3CCS(=O)(=O)C3)c(Oc3ccc(F)cc3)nc12 (configuration not stated) | inconclusive: 10 µM [quencher, side channel, partial curve] |
| Cc1noc(NS(=O)(=O)c2ccc(NC(=O)c3cc(=O)c4ccccc4o3)cc2)c1C | inconclusive: 15.8 µM [quencher, partial curve] |
| Cc1cc(N2CCOCC2)nc(-c2ccc(Br)cc2)n1 | inconclusive: 28.2 µM [quencher, side channel, single point] |
| COc1cccc(C2CC(=O)Nc3cc4c(cc32)CCC4)c1 (configuration not stated) | inactive |
| O=c1cccc2n1Cc1cc3ccccc3nc1-2 | inconclusive: 7.08 µM [quencher, side channel, partial curve] |
| O=C(N/N=C/c1cccc(O)c1)c1ccc(NC(=O)c2cccc([N+](=O)[O-])c2)cc1 | inconclusive: 35.5 µM [quencher, side channel, partial curve] |
| CCOc1ccccc1C1C(C(=O)Nc2ccc(OC)cc2)=C(C)Nc2nc(CCCO)nn21 (configuration not stated) | inconclusive: 100 µM [inhibitor, partial curve] |
| COc1ccc(CC(=O)N/N=C/c2cc([N+](=O)[O-])cc(Br)c2O)cc1 | inactive |
| Nc1nc(Nc2cccc(Cl)c2)nc(NCCO)c1[N+](=O)[O-] | inconclusive: 22.4 µM [quencher, side channel, partial curve] |
| C=CCc1c(C)nc(C)nc1N/N=C/c1ccc([N+](=O)[O-])cc1 | inconclusive: 7.94 µM [quencher, side channel, partial curve] |
